Laboratory results: the RNAGym collection of RNA variant scans (doi:10.7554/elife.90254)
The source gives no read counts; variants with many changes may rest on few reads.

B1: OR4K15 (parent)
chain: GUUAACGGUCAUAGGCCAUGGAAACUAGGAGCACCAUUUCGCUGCCAGUGAAGAAAUGAACAAAGAAAAUCUGGGCCAGGCAGGCAUCAAAAGAAAUAGUCUUGCGCUCAACCAGAAAGUCUGUAAUCAUUUUAAGGGUA

Variants of: B1
Assay: self-cleavage, relative activity (ratio to wild type); higher = more cleavage; in vitro, sequencing; the parent is a self-cleaving ribozyme

| Variant | self-cleavage |
| --- | --- |
| U72C A111G U132C | 0.05 |
| A36G A98U C113U | 0.22 |
| A24G A54G A92U | 1.64 |
| A30G A59G U103G U122C | 0.03 |
| C40U A67G A114U | 0.23 |
| A30G U49A A126U | 0.89 |
| A86G A116C A117G | 0.49 |
| A13G A23G A92G | 1.42 |
| A30G A82G A140U | 0.59 |
| A23G A69U A96U | 0.88 |
| U2C U19C A89G U97C C121U | 0.87 |
| A5G C46U A67U A82U A91U A118G | 0.08 |
| A96G U103C A111U U122C | 0.06 |
| A5U A47U A69G A82U | 0.25 |
| A51G A86U A125G | 0.78 |
| U2G G21U U72C G123A | 0.11 |
| A94G A95G U130C | 0.37 |
| A51U A59G A117G G138A | 1.13 |
| A22G A78G U102C U120C | 0.23 |
| C45U U49A U87C | 0.54 |
| A30C A78G U120C U122A | 0.07 |
| A33G A67G A78U | 0.18 |
| A22G U37C A51C A86U | 1.62 |
| A59U U72A G84A U124A | 0.07 |

| Variant | self-cleavage |
| --- | --- |
| U9C A30G U57C A118G | 1.58 |
| G14A A63G U70G A91G A92G U103C A129C | 0.22 |
| A33C U49G A60G U102C U122G | 2.64 |
| A5U A18G A94G | 0.9 |
| U2A U87C U102C A134U | 1.7 |
| U19C A52U U97C U120C | 0.72 |
| U49C A54G U102C U127C | 1.72 |
| A5G G15A U70C U131C | 0.12 |
| U26C U39C A56C C71A | 0.08 |
| A22G A27G U108C | 0.05 |
| A51U G115A U120C | 0.04 |
| U26C A63G A114G | 0.71 |
| A22G U103C G136A | 0.76 |
| A23G A89U U130C | 0.91 |
| C10U U12A A56C A68G | 0.74 |
| U72A A118U A140G | 0.13 |
| U72A G83U A92G A118G U122C A125U | 0.04 |
| U37C U43A A47U A51G A66G | 1.19 |
| U9A U38C U87C C113U U132C U139C | 0.05 |
| A33G A52G A54U | 0.86 |
| U9C A23U U57C | 1.42 |
| A36G U43C U57A A110U | 0.58 |
| G15A U43C U124A | 0.9 |
| A11G C40U A117G U124C | 0.95 |

| Variant | self-cleavage |
| --- | --- |
| G41A A68G A111U | 0.11 |
| A51U A118G U124C | 0.21 |
| U37A U70C U127C | 0.85 |
| U9C U38A A66G A117G A135G | 1.66 |
| U19A U70A A111G A117G | 0.02 |
| A22G A62G A111G A135G | 0.01 |
| A23G G31A A82G G137A | 0.21 |
| A11G G20U A47G A62G | 0.43 |
| A33U G115U A140U | 0.08 |
| A13U A117G U124C | 1.18 |
| U19C A23G C32U | 0.53 |
| A60G U100C A134U | 2.43 |
| U2A U39C A66U | 1.04 |
| A52C A63G A68G A78G A116G | 0.26 |
| A5G U19C A92U U100C A140G | 2.78 |
| A11U U120C U131C | 0.72 |
| A27U C107G A117G | 0.01 |
| A89C A94G A95G A118G A135G | 2.3 |
| C17A U122C U124C | 0.6 |
| A27G U103C U108C | 0.01 |
| U37G U49C U72C | 0.34 |
| A33G A92G A114U U124A | 0.01 |
| A4G U9C A56G A78G A117C A126U | 0.28 |
| U9A A22G A33C A47U A66G A82G U87C | 0.39 |

| Variant | self-cleavage |
| --- | --- |
| U12A A89U A126G U130C | 0.51 |
| A23G A54G U120C | 0.73 |
| A51G A54U U72C | 0.34 |
| A11G U26C A47G A51G A96G | 0.77 |
| A33U A62G A92G | 2.33 |
| U38C A69G G136A | 1.21 |
| A23U U43C A59G A86G A129G | 0.5 |
| C35U U49C G119A | 0.7 |
| A24C A54G C71U U72C A110U | 0.27 |
| A18G G75A C77U A117G A135U | 0.09 |
| U19C A22G A51U A67G A69U U124G U131G | 0.9 |
| U12C A36U A68G | 1.18 |
| A23U A51U A62G A118G | 0.77 |
| A18G A23G G136C | 1 |
| C10A A60G A86U A118G | 0.82 |
| U2A U72A A117G U127C | 0.09 |
| U9C A116G A118U | 0.14 |
| A60G U102G A117G | 0.77 |
| A59G A82G A126G | 0.22 |
| U49A A68U A91G | 1.04 |
| A64G A69G U87C U122C U127A | 1.22 |
| A36G U72C A90G A114U A117G | 0.04 |
| U37C A67G A86G C113U | 0.02 |
| U3C A11G G53A | 0.94 |

| Variant | self-cleavage |
| --- | --- |
| U38C A52C A90G A92G | 0.81 |
| A56G C61U A111G | 0.04 |
| U2C A36G A67C A117G | 1.3 |
| U12C A89U A111G A118C | 0 |
| G48A A90G U100C U124C | 1.7 |
| U9C A62G A92G U122C A126G | 1.54 |
| C71A G80C A95G | 0.04 |
| A24G U49C A69C A82U A140G | 0.23 |
| U43A A47G A129G | 0.52 |
| A5G A22G A23G | 1.36 |
| U38C A51G A52G U131A | 0.95 |
| A54G A55G U108C | 0.02 |
| A11G A36G A47G A117G | 0.57 |
| U2C A24G A36U | 0.64 |
| A36U A91G A110U A126G | 0.84 |
| C6U A91G A94G | 1.13 |
| A56G U87A U120C U139C | 1.1 |
| A24G A60G U70C U103C | 0.67 |
| A36U U43A C45U A69U U72C U102A | 0.28 |
| A5G A33U U102C | 1.64 |
| U38C G93U U133C | 2.12 |
| A68G U87C A91G | 0.84 |
| A18G A24G C46U A78G A96G U131C | 0.26 |
| A60U G65A A110G | 0.17 |

| Variant | self-cleavage |
| --- | --- |
| U39C A63U A82G | 0.63 |
| G31A U70G G99A A125G | 0.2 |
| A59U C77U U97C A98G U132C | 1.69 |
| G65A A129G U130A | 1.07 |
| A11G A54G U57C A82U A125G | 0.09 |
| A52G U108C U124C | 0 |
| A30U U37C A92G | 1.64 |
| C34U G115A A135G | 0.16 |
| A22G A60G U127A | 1.85 |
| A22G A78U U130C U133C | 0.26 |
| A23G A27G G31A A96C | 1.14 |
| A64G A91G A95G | 2.53 |
| U3C U87G U100C A110C U120C | 0.17 |
| U70C G80A A126G | 0.11 |
| A5C A59G U87A A111G | 0.04 |
| A60G A67G A69G A91G | 0.52 |
| A22G U49C A68G U103A A110G | 0.08 |
| U3C A11G A60G A94G | 1.02 |
| A11G A52G A91G A114G | 0.15 |
| U9C U38C A62G A68G A90G | 1.26 |
| U9C A62G A96G | 1.38 |
| U2C A22G U103C | 0.56 |
| U9C U38C A54G A116G A135C | 1.7 |
| U39C A86G A98G A110U U122C G138U | 0.18 |

| Variant | self-cleavage |
| --- | --- |
| U70C U103C G106A U130C | 0 |
| A18U A23G U39A | 1.14 |
| G1A A36G A62G A92G | 1.26 |
| U12A A86G U120A | 1.21 |
| U39C A82G U102C | 0.78 |
| A52U A56G A110G | 0.17 |
| A30U A59C A129G | 0.61 |
| A11G A54G A78G | 0.37 |
| C10A A23U A36G U43A | 1.11 |
| U9A C105U A114U | 0.04 |
| A11G A60G A82G A118G | 0.1 |
| A11G A82U A114G A126U | 0.03 |
| A67G U103C U122C | 0.13 |
| A24G A55G A82G A86U | 0.39 |
| A51G U103C A111G U124C | 0.01 |
| A13G A22U A96G C121U | 1.78 |
| A5G A69U U70A | 0.99 |
| A59G A69G U122C | 0.39 |
| A52G A63G A64G U102C A118G U122C | 1.91 |
| U12C A69G U132C | 0.33 |
| A67G G80A A96G A114G | 0.02 |
| A63G A94G U122A | 1.22 |
| U72A U108C U122A A140G | 0.01 |
